Test results published in the supplement of paper PMC10126150.
Sequences with one replicate were seen in a single cluster, so their values are uncertain.

System: ATP
Assay: switch fluorescence ratio, 500 uM ATP over buffer (Cy3 cluster intensity, sum of 5 cycles each) (fold (ratio)); higher = stronger signal-on switching upon ATP binding; sequences stand for … in TCGTCGGCAGCGTCAGATGTGTATAAGAGACAGTTTTTTTTTTTTTTTTTTTTTTTTT…TC
Conditions: aptamer strand: ATP DNA aptamer (quencher-CACCTGGGGGAGTATTGCGGAGGAAGG + anchor), 100 nM annealed; ATP concentration: 500 uM; one replicate
Outline: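 After annealing to 100 nM quencher-labelled ATP aptamer, Cy3-labelled switching-strand clusters on a modified Illumina MiSeq flow-cell were imaged in selection buffer. A second image followed after 15 min with 500 uM ATP at 22 °C, and five such buffer/ATP cycles were done, each separated by NaOH stripping and re-annealing. The fluorescence ratio, averaged per switch-domain sequence, is summed target-cycle over summed buffer-cycle Cy3 intensity per cluster, with clusters outside 100-1000 RFU excluded.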
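Note: ATP exposure 15 min at 22 °C before imaging.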

Row | Sequence | switch fluorescence ratio
1 | TTAAACAATG | 1.01
2 | TGCTAGAGGT | 1.06
3 | GCGCTGTTTG | 1.02
4 | TGCGTCCCCG | 0.991
5 | ATGGAGGGC | 0.948
6 | GGTTAATTCC | 1.08
7 | CCGGATCTTT | 0.967
8 | TAAGGGTGT | 1.06
9 | TGGTACGTTA | 1.13
10 | ATAACCGGGG | 1.04
11 | CATGCTGATG | 0.999
12 | GATAGGTCTC | 1.01
13 | AACAATTGAA | 1.01
14 | CGACCAGTGT | 1.32
15 | TCAAACATAT | 1
16 | ACGATGAATG | 1.03
17 | TAACCCATAC | 1.28
18 | TGTAGGTGTA | 1.01
19 | CGGGGTCCTT | 0.987
20 | CACTTGAGGC | 0.943
21 | CGGTTTTGCT | 0.974
22 | AAAACCGCCA | 1.46
23 | GGTCATCTGT | 0.935
24 | AGATCAGCTT | 0.956
25 | GGCAGATCCT | 0.988
26 | GGCGGCTGGA | 1.01

Row | Sequence | switch fluorescence ratio
27 | ACTCTGGAAA | 1.09
28 | TGGTCGTATC | 1.05
29 | TTGTAGGCAT | 0.993
30 | CGTGGTGCAG | 0.958
31 | GATCAATATT | 1.03
32 | GACGCCTTTG | 0.983
33 | CATAGATATG | 0.969
34 | GTTGTCTCCC | 0.99
35 | AAGACGTTGC | 1.02
36 | ACTTGCCTGG | 1.1
37 | TGGCTTAAAT | 1.01
38 | CATTCGTCGT | 0.985
39 | CCCCCTCTGA | 1.09
40 | GATGAGAATA | 1.01
41 | ACTGTACATA | 1.45
42 | TGGATGGAGG | 0.984
43 | ACGATACTCT | 1.62
44 | ACCGCGAGTA | 1.06
45 | AGCGTGGAGT | 1.02
46 | CAACCCGGGT | 0.979
47 | GCCGTGGTAT | 1
48 | TATGTTGGAG | 0.976
49 | TGTGGCATG | 1.02
50 | TTGTGCTCCG | 0.971
51 | GATTAAGTCG | 0.931
52 | GAGGCTTAGT | 1.04

Row | Sequence | switch fluorescence ratio
53 | ATGCATTCTA | 1.05
54 | TTGTTCAGAC | 1.04
55 | ATGGGTCCTA | 0.99
56 | TGGTTCAGCA | 1.02
57 | CAAACTACAG | 1.03
58 | TGGAGATATT | 0.979
59 | CTGTGTCGGT | 0.97
60 | CTACGCGGTA | 1.84
61 | CCGGCAGATT | 1.11
62 | GCGCCTCTAC | 2.11
63 | AGTCGGCAGA | 1.06
64 | CACTATCTCT | 0.988
65 | ATTCACGAGT | 1.06
66 | CGACCCGCAC | 5.04
67 | TGATCCTGCG | 1.03
68 | TTTGGATCGA | 1.3
69 | CGGTATATTA | 0.971
70 | GAAAAACGGT | 1.01
71 | ACAATTAAAC | 1.07
72 | AAGTACGTGG | 1.15
73 | GAAATGGGCT | 1.01
74 | AGTTTTATC | 0.945
75 | ATAGGCTGAG | 0.972
76 | CGGCGACCGG | 0.999
77 | GGTGCTAAGA | 1.04
78 | GGAATAAACG | 0.973

Row | Sequence | switch fluorescence ratio
79 | ATTTGTCCTG | 1.04
80 | ACTCACACGT | 1.39
81 | AGTTCGGCGG | 1.02
82 | ATTTGTAAAC | 1.01
83 | GAACTGTCTG | 1.03
84 | AACGAGCTTG | 0.938
85 | AGTTGATATT | 1
86 | CACAAGGTAA | 1.02
87 | GCATATTAGT | 0.977
88 | GGCTTTGCTG | 1.03
89 | TCTAAATATG | 0.994
90 | GAACTAGAAC | 1.02
91 | TGATCGAGGC | 0.987
92 | TAGAAGCAAG | 1.06
93 | GGTTAATGCG | 0.995
94 | ACACGGAGCC | 1.07
95 | GAAAGTGCTT | 0.954
96 | GAAACCATGA | 1.05
97 | CTGTATGTAA | 1.04
98 | GGAGATCCG | 0.947
99 | GGTAGCGTTT | 0.941
100 | TAAGCTTGCA | 0.949
101 | ATGGAGGAGG | 0.98
102 | TAAGAGATTA | 1.05
103 | TCCAGAGCCA | 1.84
104 | GAAAATTTGC | 1.01

Row | Sequence | switch fluorescence ratio
105 | AAACAGCTTT | 0.953
106 | CTGCAATCAG | 3.61
107 | GGTTTACATG | 0.944
108 | GGGATGACTT | 1.01
109 | TGCAAATGT | 1.01
110 | CATCGATATG | 0.994
111 | TAGAGCTCGG | 0.979
112 | GCTGTAGTAA | 1.32
113 | ATATGCAGTG | 0.977
114 | GATGTGTCGT | 1
115 | GCTCCGTGTT | 1.99
116 | AAGCGGGCTG | 0.982
117 | TTTCTTAAGG | 0.974
118 | CTCTATTTTT | 1.02
119 | CATAGGGTAA | 0.999
120 | TCATCTAGCT | 1.05
121 | CTGGCGCAGC | 1.03
122 | CACGGAGGAT | 1.01
123 | CGTTCTCGT | 1
124 | GGTGGTGTC | 0.993
125 | TTCTGTATTC | 1
126 | AAGAACTA | 1.04
127 | GCGGTGGGAT | 1.04
128 | CAGGGAAGGA | 1.03
129 | GTAAGATCTA | 0.97
130 | CAAGTTCCCA | 1

Row | Sequence | switch fluorescence ratio
131 | GCTGGTAATC | 0.976
132 | GTGTTTGACG | 1
133 | ACTACGGG | 1
134 | CCAAAAACAC | 1.09
135 | TCCACCGACG | 1.5
136 | GCACCCAGAG | 1.52
137 | GGAGGGTACG | 1.07
138 | TTCTGGTTCG | 0.959
139 | GAGTCGGCTT | 1
140 | TCTGAATACG | 1.74
141 | CCACTCCCCA | 1.05
142 | ATTCTGAACG | 1.08
143 | AGCGCAATTA | 3.43
144 | CACAGAACGC | 1.09
145 | TCAAACAAGG | 1.03
146 | TTAAGCCAG | 0.993
147 | TACAGGAGAA | 1.04
148 | ATGATTCGAG | 0.985
149 | GCTATCTCGC | 1.05
150 | TCCTGGACGC | 1.17
151 | TGAATGGAA | 0.997
152 | AGTGTAGCCG | 1.03
153 | AACAGCGTTG | 0.997
154 | TACTTCGTAG | 1
155 | TCACAGGCA | 0.987
156 | GCTATTCTAT | 1.06

Row | Sequence | switch fluorescence ratio
157 | GGGAGGTCCG | 1.11
158 | CGGAGTGTA | 1.05
159 | CACGGGAATG | 1
160 | TTTTTTAC | 1.03
161 | CCCCGAGGGA | 1.1
162 | CAGTTGTAAT | 0.992
163 | TGTGTGGAAA | 1.06
164 | GGCTGATCTA | 0.989
165 | CTTATAGTGT | 0.986
166 | TGCATTCTCG | 1.08
167 | TAAACGGAAT | 1.01
168 | ATCGAGGTAA | 1.03
169 | AAATGGAAG | 1.01
170 | CCACCCAACA | 1.37
171 | GATCTCATTA | 0.951
172 | CCTGCTAGTT | 1.04
173 | CATCTCGGTG | 0.999
174 | TCGTATCTGA | 0.971
175 | GAGGAACCAA | 1.01
176 | TCACGGCTGC | 1.06
177 | AGAGTATCGT | 0.975
178 | TAGTAATGAT | 1.03
179 | GACTGCAACT | 1.39
180 | CCGCGTTTCT | 2.27
181 | TAATATGGAA | 1.01
182 | CACTGGTAGA | 1.06

Row | Sequence | switch fluorescence ratio
183 | TGGCCCTTGT | 1.01
184 | CGTGCTTTCA | 0.982
185 | CACTTACGCG | 1
186 | CGGGCGTGTC | 0.964
187 | GTGTCGATGA | 1.01
188 | ATACGTCACA | 1.57
189 | CGGTTGACTC | 1.05
190 | TCGCTCTGAA | 1.03
191 | GGACGGGACA | 1.1
192 | AGTCGCCGAT | 0.997
193 | TTGGGTGCAA | 1.04
194 | GGGGTAGCTA | 1.02
195 | AGTGGATTAT | 0.985
196 | CTACCGCTGA | 3.06
197 | TTTGGAATGA | 1.03
198 | TTCAACAC | 1.05
199 | TCTATCTGCT | 1.02
200 | TTCAGGTGGA | 1.02
201 | ATTTGGAATA | 1.02
